Source: PubChem BioAssay AID485294 (National Center for Advancing Translational Sciences (NCATS), 2010)
Screen size: about 370,000 compounds; about 150 (0.041%) were called active. The inconclusive results got no clear call from the source; some entries with a clear call stand among them for comparison. Calls come from the whole dose curve; as a rule, active = well fitted inhibition curve with a large enough effect; inconclusive = small, poorly fitted or top-dose-only effect; inactive = flat fitted curve, though single readings scatter. No potency is given beside an inconclusive call; the fits are too rough.

The compounds below were run against Beta-lactamase (Escherichia coli (strain K12)) (UniProt P00811) (assay: qHTS Inhibitors of AmpC Beta-Lactamase (assay with detergent)). Details: AmpC hydrolysis of nitrocefin, absorbance 480 nm, 0.01% Triton; activity change, negative = inhibition: at 114 µM (top of the series).
UniProt P00811, sequence (P00811 whole entry, looked up): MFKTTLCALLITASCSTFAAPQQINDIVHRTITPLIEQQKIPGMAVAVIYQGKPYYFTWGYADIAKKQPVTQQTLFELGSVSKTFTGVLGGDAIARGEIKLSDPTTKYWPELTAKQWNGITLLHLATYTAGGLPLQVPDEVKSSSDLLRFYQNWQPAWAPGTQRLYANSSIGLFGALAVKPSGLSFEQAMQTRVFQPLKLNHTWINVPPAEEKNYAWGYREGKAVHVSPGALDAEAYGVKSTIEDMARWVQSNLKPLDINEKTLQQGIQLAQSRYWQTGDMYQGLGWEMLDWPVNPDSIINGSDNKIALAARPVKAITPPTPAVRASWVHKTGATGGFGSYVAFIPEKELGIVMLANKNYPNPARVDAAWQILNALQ
Procedure, shortened: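 AmpC (5.3 nM in the dispensed reagent) in 20 mM phosphate pH 7.0 with 0.01% (detergent screen) or 0.0001% Triton X-100 was preincubated with compounds for 15 min at room temperature. Nitrocefin was then added from an 800 uM solution, and hydrolysis was followed at 480 nm.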
Note: nearly all actives have a fitted effect of over 25% in size.
Potency is the fitted concentration of half-maximal effect; tags give direction and shape of the fitted curve.
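Throughout, for activity change, negative = inhibition: 0% = no-compound wells and -100% = no-enzyme wells.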

Structure (SMILES)	Potency	activity change, negative = inhibition
COc1cccc(-c2nn3c(-c4cc(C)[nH]n4)nnc3s2)c1	inconclusive [inhibitor, full curve]	
CC1(C)CC(NC(=O)c2ccc3c(c2)OCO3)CC(C)(C)N1	inconclusive [inhibitor, full curve, poor fit]	
O=C1c2ccccc2C(=O)N1SC1CCCCC1	inconclusive [inhibitor, partial curve]	
O=C(/C=C/c1cccs1)N1CCC2(CC1)Oc1ccc(F)cc1C(=O)C21CC(c2ccc(Cl)cc2)=NO1 (stereo not drawn)		inactive: -6.29%
O=C(COC(=O)C12CC3CC(CC(O)(C3)C1)C2)NC12CC3CC(CC(C3)C1)C2	inconclusive [inhibitor, full curve, poor fit]	
CCC1(c2ccccc2)NC(=O)N(CC#N)C1=O (stereo not drawn)	inconclusive [inhibitor, partial curve, poor fit]	
CCCn1c(N2CCN(C(=O)N3CCCCC3)CC2)nc2ccccc21	inconclusive [inhibitor, partial curve, poor fit]	
C/C(=N\NC(=O)C1(C)CC1(Br)Br)c1cccc(NC(=O)C(C)(C)C)c1 (stereo not drawn)		inactive: -11.1%
COCCOC(=O)C1=C(C)NC(=O)CC1c1cc2c(cc1Br)OCO2 (stereo not drawn)	inconclusive [inhibitor, partial curve]	
O=c1ccc2ccc(OCc3nnc(-c4ccccc4Br)o3)cc2o1		inactive: 2.55%
O=C(CN1CCN(c2ccccc2F)CC1)c1ccc(O)c(O)c1		inactive: -2.34%
CCCCN1C(C(=O)c2ccccc2)=C(OC(C)=O)c2ccccc2S1(=O)=O		inactive: 21.6%
CCC(=O)NCCc1nc2ccccc2n1CC(=O)c1ccccc1	inconclusive [inhibitor, partial curve, poor fit]	
Cc1ccc(CN2CCCOCCS2(=O)=O)cc1	inconclusive [inhibitor, partial curve, poor fit]	
O=S(=O)(NC(=NCc1ccccc1)c1ccccc1)c1ccccc1	inconclusive [inhibitor, single point]	
CCOc1ccc(Oc2ccc(NC(=O)CSc3nncn3C)cc2)cc1	inconclusive [inhibitor, full curve, poor fit]	
CN(CC(=O)Nc1ccccc1Br)C(=O)CCc1ccccc1	inconclusive [inhibitor, partial curve, poor fit]	
O=C(COC(=O)c1c2ccccc2cc2ccccc12)NCC(F)(F)F	inconclusive [inhibitor, partial curve, poor fit]	
Cn1c(SCc2ccc([N+](=O)[O-])cc2)nnc1-c1cccnc1	inconclusive [inhibitor, partial curve]	
CC(C)(C)OC(=O)NCCCCCc1cn([C@@H](CO)C(=O)NCCCCCCCCCCC(=O)N2CCN(C(=O)OC(C)(C)C)CC2)nn1		inactive: 5.83%
O=C(C[n+]1ccc2ccccc2c1)c1cccc2ccccc12		inactive: 2.22%
C=CCOc1ccc(/C=C/C(=O)OCC(=O)N(C)CC(=O)Nc2ccccc2Cl)cc1	inconclusive [inhibitor, full curve]	

Structure (SMILES)	Potency	activity change, negative = inhibition
CSC(=CC(=O)c1ccc(F)cc1)SC		inactive: -2.96%
CSc1ncccc1C(=O)NCCc1ccc(Cl)cc1	inconclusive [inhibitor, partial curve, poor fit]	
CCn1c(Cc2ccccc2)nnc1SCc1cccc(C(=O)O)c1	inconclusive [inhibitor, full curve, poor fit]	
Cc1cc(C)c(-c2c(O)c3c(n(C)c2=O)CC(C)(C)CC3=O)c(C)c1	inconclusive [inhibitor, full curve, poor fit]	
CCOc1ccc(CN2CCC(n3nccc3NC(=O)c3ccccc3OC)CC2)cc1	inconclusive [inhibitor, full curve, poor fit]	
COc1ccc(Cl)cc1NC(=S)NNC(=O)CC(C)C	inconclusive [inhibitor, partial curve, poor fit]	
Fc1ccccc1CNC(=S)NCc1ccc(Cl)cc1	inconclusive [inhibitor, full curve, poor fit]	
O=C(Nc1c(C(=O)O)oc2ccccc12)c1ccc(C(F)(F)F)cc1		inactive: 3.57%
CC(=O)Oc1ccc(-c2cccc(C(=O)OCC(=O)N(C)c3ccccc3)c2)cc1		inactive: 4.13%
O=C(CCS(=O)(=O)c1ccccc1)Nc1ncc([N+](=O)[O-])s1	inconclusive [inhibitor, full curve, poor fit]	
COc1cccc(/C(C)=N/N=C(\C)c2cccc(OC)c2)c1	inconclusive [inhibitor, partial curve, poor fit]	
Cc1ccc(S(=O)(=O)N(C)C)cc1NC(=S)NCCCn1ccnc1	inconclusive [inhibitor, partial curve, poor fit]	
COc1coc(/C=C/C(=O)O)cc1=O	inconclusive [inhibitor, full curve, poor fit]	
O=C(Nc1ccc(F)cc1F)c1ccc2c(O)c(S(=O)(=O)c3ccc(Cl)cc3)c(=O)[nH]c2c1		inactive: -0.0422%
NNC(=O)c1ccc(CSc2cccc3cccnc23)cc1	inconclusive [inhibitor, partial curve]	
COc1ccc(-c2noc(CCC(=O)Nc3cc(Cl)c(OC)cc3OC)n2)cc1		inactive: -7.06%
CC(=O)Nc1ccc(NS(=O)(=O)c2cn(C)c(=O)n(C)c2=O)cc1	inconclusive [inhibitor, full curve]	
CC(C)C(c1nnnn1C(C)(C)C)N1CCN(c2cccc(Cl)c2)CC1 (stereo not drawn)	inconclusive [inhibitor, partial curve, poor fit]	
CCN(CC(=O)Nc1ccccc1OC)C(=O)c1cc(S(=O)(=O)N2CCCCCC2)ccc1OC	inconclusive [inhibitor, full curve, poor fit]	
Cc1ccc(OC(=O)COc2ccccc2)c(-n2nc3ccccc3n2)c1		inactive: -3.75%
COc1cccc(C2C3=C(N=C4SCC(=O)N42)c2ccccc2CC3)c1OC (stereo not drawn)		inactive: -0.435%
